According to the supplement of paper PMC8728848:
The list shows a part of the results.

How the values were obtained:
Experiment in all cases: glycan array binding signal (z-score within array); higher = stronger binding
Conditions in all cases: glycan notation: IUPAC condensed, linker removed
[1] = biological target: Fuc(a1-2)Gal
Method in brief: (§1)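 Columns mapping to the same glycan were averaged after glycan names were converted to IUPAC-condensed notation. The data come from 3228 arrays in the Consortium for Functional Glycomics database, limited to those with an available protein sequence. Binding is reported as a within-array Z-score averaged across arrays of one protein sequence and across linkers.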

[2] = biological target: Fuc(a1-2)Gal(b1-3)GalNAc
Method in brief: as §1

[3] = biological target: Fuc(a1-2)Gal(b1-3)GalNAc(a1-3)[Fuc(a1-2)]Gal(b1-4)Glc
Method in brief: as §1

[4] = biological target: Fuc(a1-2)Gal(b1-3)GalNAc(a1-3)[Fuc(a1-2)]Gal(b1-4)GlcNAc
Method in brief: as §1

[5] = biological target: Fuc(a1-2)Gal(b1-3)GalNAc(b1-3)Gal
Method in brief: as §1

[6] = biological target: Fuc(a1-2)Gal(b1-3)GalNAc(b1-3)Gal(a1-4)Gal(b1-4)Glc
Method in brief: as §1

[7] = biological target: Fuc(a1-2)Gal(b1-3)GalNAc(b1-4)[Neu5Ac(a2-3)]Gal(b1-4)Glc
Method in brief: as §1

[8] = biological target: Fuc(a1-2)Gal(b1-3)GlcNAc
Method in brief: as §1

[9] = biological target: Fuc(a1-2)Gal(b1-3)GlcNAc(b1-2)Man(a1-3)[Fuc(a1-2)Gal(b1-3)GlcNAc(b1-2)Man(a1-6)]Man(b1-4)GlcNAc(b1-4)GlcNAc
Method in brief: as §1

[10] = biological target: Fuc(a1-2)Gal(b1-3)GlcNAc(b1-2)Man(a1-3)[Fuc(a1-2)Gal(b1-3)GlcNAc(b1-2)Man(a1-6)]Man(b1-4)GlcNAc(b1-4)[Fuc(a1-6)]GlcNAc
Method in brief: as §1

[11] = biological target: Fuc(a1-2)Gal(b1-3)GlcNAc(b1-3)Gal(b1-4)Glc
Method in brief: as §1

[12] = biological target: Fuc(a1-2)Gal(b1-3)GlcNAc(b1-3)GalNAc
Method in brief: as §1

[13] = biological target: Fuc(a1-2)Gal(b1-3)GlcNAc(b1-3)[Fuc(a1-2)Gal(b1-3)GlcNAc(b1-6)]GalNAc
Method in brief: as §1

[14] = biological target: Fuc(a1-2)Gal(b1-3)GlcNAc(b1-3)[Gal(b1-4)GlcNAc(b1-6)]Gal(b1-4)Glc
Method in brief: as §1

[15] = biological target: Fuc(a1-2)Gal(b1-3)GlcNAc(b1-3)[Neu5Ac(a2-6)Gal(b1-4)GlcNAc(b1-6)]Gal(b1-4)Glc
Method in brief: as §1

[16] = biological target: Fuc(a1-2)Gal(b1-3)GlcNAc6S
Method in brief: as §1

[17] = biological target: Fuc(a1-2)Gal(b1-3)[Fuc(a1-4)]GlcNAc
Method in brief: as §1

[18] = biological target: Fuc(a1-2)Gal(b1-3)[Fuc(a1-4)]GlcNAc(b1-2)Man(a1-3)[Fuc(a1-2)Gal(b1-3)[Fuc(a1-4)]GlcNAc(b1-2)Man(a1-3)]Man(b1-4)GlcNAc(b1-4)GlcNAc
Method in brief: as §1

[19] = biological target: Fuc(a1-2)Gal(b1-3)[Fuc(a1-4)]GlcNAc(b1-2)Man(a1-3)[Fuc(a1-2)Gal(b1-3)[Fuc(a1-4)]GlcNAc(b1-2)Man(a1-6)]Man(b1-4)GlcNAc(b1-4)[Fuc(a1-6)]GlcNAc(b1-4)[Fuc(a1-6)]GlcNAc
Method in brief: as §1

[20] = biological target: Fuc(a1-2)Gal(b1-3)[Fuc(a1-4)]GlcNAc(b1-3)[Fuc(a1-3)[Gal(b1-4)]GlcNAc(b1-6)]Gal(b1-4)Glc
Method in brief: as §1

[21] = biological target: Fuc(a1-2)Gal(b1-3)[Fuc(a1-4)]GlcNAc(b1-3)[Gal(b1-4)GlcNAc(b1-6)]Gal(b1-4)Glc
Method in brief: as §1

[22] = biological target: Fuc(a1-2)Gal(b1-4)Fuc(a1-3)]GlcNAc(b1-2)Man(a1-3)[Fuc(a1-2)Gal(b1-4)[Fuc(a1-3)]GlcNAc(b1-2)Man(a1-6)]Man(b1-4)GlcNAc(b1-4)GlcNAc
Method in brief: as §1

[23] = biological target: Fuc(a1-2)Gal(b1-4)Glc
Method in brief: as §1

[24] = biological target: Fuc(a1-2)Gal(b1-4)Glc6S
Method in brief: as §1

[25] = biological target: Fuc(a1-2)Gal(b1-4)GlcNAc
Method in brief: as §1

[26] = biological target: Fuc(a1-2)Gal(b1-4)GlcNAc(b1-2)Man
Method in brief: as §1

[27] = biological target: Fuc(a1-2)Gal(b1-4)GlcNAc(b1-2)Man(a1-3)[Fuc(a1-2)Gal(b1-4)GlcNAc(b1-2)Man(a1-6)]Man(b1-4)GlcNAc(b1-4)GlcNAc
Method in brief: as §1

[28] = biological target: Fuc(a1-2)Gal(b1-4)GlcNAc(b1-2)Man(a1-3)[Fuc(a1-2)Gal(b1-4)GlcNAc(b1-2)Man(a1-6)]Man(b1-4)GlcNAc(b1-4)[Fuc(a1-6)]GlcNAc
Method in brief: as §1

[29] = biological target: Fuc(a1-2)Gal(b1-4)GlcNAc(b1-2)[Fuc(a1-2)Gal(b1-4)GlcNAc(b1-4)]Man(a1-3)[Fuc(a1-2)Gal(b1-4)GlcNAc(b1-2)Man(a1-6)]Man(b1-4)GlcNAc(b1-4)GlcNAc
Method in brief: as §1

[30] = biological target: Fuc(a1-2)Gal(b1-4)GlcNAc(b1-3)Gal(b1-4)GlcNAc
Method in brief: as §1

[31] = biological target: Fuc(a1-2)Gal(b1-4)GlcNAc(b1-3)Gal(b1-4)GlcNAc(b1-2)Man(a1-3)[Fuc(a1-2)Gal(b1-4)GlcNAc(b1-3)Gal(b1-4)GlcNAc(b1-2)Man(a1-6)]Man(b1-4)GlcNAc(b1-4)GlcNAc
Method in brief: as §1

[32] = biological target: Fuc(a1-2)Gal(b1-4)GlcNAc(b1-3)Gal(b1-4)GlcNAc(b1-3)Gal(b1-4)GlcNAc
Method in brief: as §1

[33] = biological target: Fuc(a1-2)Gal(b1-4)GlcNAc(b1-3)GalNAc
Method in brief: as §1

[34] = biological target: Fuc(a1-2)Gal(b1-4)GlcNAc(b1-3)[Fuc(a1-2)Gal(b1-4)GlcNAc(b1-6)]GalNAc
Method in brief: as §1

[35] = biological target: Fuc(a1-2)Gal(b1-4)GlcNAc(b1-3)[Fuc(a1-3)[Gal(b1-4)]GlcNAc(b1-6)]Gal(b1-4)Glc
Method in brief: as §1

[36] = biological target: Fuc(a1-2)Gal(b1-4)GlcNAc(b1-6)GalNAc
Method in brief: as §1

[37] = biological target: Fuc(a1-2)Gal(b1-4)GlcNAc6S
Method in brief: as §1

[38] = biological target: Fuc(a1-2)Gal(b1-4)[Fuc(a1-3)]GlcNAc
Method in brief: as §1

[39] = biological target: Fuc(a1-2)Gal(b1-4)[Fuc(a1-3)]GlcNAc(b1-2)Man(a1-3)[Fuc(a1-2)Gal(b1-4)[Fuc(a1-3)]GlcNAc(b1-2)Man(a1-6)]Man(b1-4)GlcNAc(b1-4)[Fuc(a1-6)]GlcNAc
Method in brief: as §1

[40] = biological target: Fuc(a1-2)Gal(b1-4)[Fuc(a1-3)]GlcNAc(b1-2)[Fuc(a1-2)Gal(b1-4)[Fuc(a1-3)]GlcNAc(b1-4)]Man(a1-3)[Fuc(a1-2)Gal(b1-4)[Fuc(a1-3)]GlcNAc(b1-2)Man(a1-6)]Man(b1-4)GlcNAc(b1-4)GlcNAc
Method in brief: as §1

[41] = biological target: Fuc(a1-2)Gal(b1-4)[Fuc(a1-3)]GlcNAc(b1-3)Gal(b1-4)[Fuc(a1-3)]GlcNAc
Method in brief: as §1

[42] = biological target: Fuc(a1-2)Gal(b1-4)[Fuc(a1-3)]GlcNAc(b1-3)Gal(b1-4)[Fuc(a1-3)]GlcNAc(b1-3)Gal(b1-4)[Fuc(a1-3)]GlcNAc
Method in brief: as §1

[43] = biological target: Fuc(a1-2)Gal(b1-4)[Fuc(a1-3)]GlcNAc(b1-3)GalNAc
Method in brief: as §1

[44] = biological target: Fuc(a1-2)Gal(b1-4)[Fuc(a1-3)]GlcNAc(b1-3)[Neu5Ac(a2-6)Gal(b1-4)GlcNAc(b1-6)]Gal(b1-4)Glc
Method in brief: as §1

[45] = biological target: Fuc(a1-2)Gal3S(b1-4)GlcNAc
Method in brief: as §1

B1: EPL1 (Trichoderma atroviride), A0PCX2 (protein)
chain: MQLSNLFKLALFTAAVSADTVSYDTGYDDASRSLTVVSCSDGTNGLITRYHWQTQGQIPRFPYIGGAQAVAGWNSPNCGTCWKLTYSGKTIYVLAIDHTAAGFNIGLDAMNALTNGNAVALGRVSATASQVAVSNCGL
[1]
  glycan array binding signal (z-score): -0.335
[2]
  glycan array binding signal (z-score): -0.087
[3]
  glycan array binding signal (z-score): -0.272
[4]
  glycan array binding signal (z-score): -0.075
[5]
  glycan array binding signal (z-score): -0.081
[6]
  glycan array binding signal (z-score): 0.051
[7]
  glycan array binding signal (z-score): -0.195
[8]
  glycan array binding signal (z-score): -0.562
[9]
  glycan array binding signal (z-score): 0.479
[10]
  glycan array binding signal (z-score): -0.023
[11]
  glycan array binding signal (z-score): -0.176
[12]
  glycan array binding signal (z-score): 0.648
[13]
  glycan array binding signal (z-score): 0.416
[14]
  glycan array binding signal (z-score): -0.353
[15]
  glycan array binding signal (z-score): 0.304
[16]
  glycan array binding signal (z-score): -0.466
[17]
  glycan array binding signal (z-score): -0.419
[18]
  glycan array binding signal (z-score): 0.341
[19]
  glycan array binding signal (z-score): -0.221
[20]
  glycan array binding signal (z-score): -0.315
[21]
  glycan array binding signal (z-score): 0.251
[22]
  glycan array binding signal (z-score): 0.27
[23]
  glycan array binding signal (z-score): -0.442
[24]
  glycan array binding signal (z-score): 0.188
[25]
  glycan array binding signal (z-score): -0.506
[26]
  glycan array binding signal (z-score): -0.194
[27]
  glycan array binding signal (z-score): 0.448
[28]
  glycan array binding signal (z-score): -0.21
[29]
  glycan array binding signal (z-score): -0.292
[30]
  glycan array binding signal (z-score): 0.062
[31]
  glycan array binding signal (z-score): -0.05
[32]
  glycan array binding signal (z-score): -0.711
[33]
  glycan array binding signal (z-score): 0.127
[34]
  glycan array binding signal (z-score): -0.049
[35]
  glycan array binding signal (z-score): -0.187
[36]
  glycan array binding signal (z-score): -0.394
[37]
  glycan array binding signal (z-score): 0.319
[38]
  glycan array binding signal (z-score): 0.212
[39]
  glycan array binding signal (z-score): 0.097
[40]
  glycan array binding signal (z-score): -0.296
[41]
  glycan array binding signal (z-score): -0.072
[42]
  glycan array binding signal (z-score): 0.232
[43]
  glycan array binding signal (z-score): 0.385
[44]
  glycan array binding signal (z-score): 0.037
[45]
  glycan array binding signal (z-score): 0.62
